# From publication PMC12136788
# The other results are listed elsewhere or left out.
# T1: UNK ZnF1-3 (human, UniProt Q9C0B0 31-174)
# T1 sequence: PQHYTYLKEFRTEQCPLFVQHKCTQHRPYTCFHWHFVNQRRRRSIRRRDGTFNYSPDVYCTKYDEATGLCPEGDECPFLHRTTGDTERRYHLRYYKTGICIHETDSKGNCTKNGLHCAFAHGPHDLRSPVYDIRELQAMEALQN
# B1: chr5:176562935:176562936:+_ENSG00000165671_ENST00000439151|hu_mus|motif|central (ssRNA)
# RNA: GGGAGUUCUACAGUCCGACGAUCGGGACUGGAGUCUGGAUCAUCCUGAAAAGAUAAAUUUAUUGAGUUAAAUUGCUCUUCGGCGGUAACGUUCGUGUCUCCUAGUGAGGUGGGGGCUGGGAGGAGGGCUGUCUUUUCAUUGCUCAACAGAGGAUUGAGCAUCA
# B2: chrX:98862621:98862622:+_ENSMUSG00000034160_ENSMUST00000044475|mus_hu|mus_mus_mus_hu_False|8_38 (ssRNA)
# RNA: GGGAGUUCUACAGUCCGACGAUCCUGCAUCUCCUUUAGAGUGUUUCCCAUAUUAGAGUAGGCAUCAGCAAAGGUAGGACUGAUUCGAAUAGCCUCCUUAUAGUGCAUCAGAGCUUCCUGCAGUUUUCCCUGCUGUUGCAGUACCAACAGAGGAUUGAGCAUCA
# B3: chr20:57485041:57485042:+_ENSG00000087460_ENST00000306090|hu_hu|FALSE|FALSE (ssRNA)
# RNA: GGGAGUUCUACAGUCCGACGAUCGUAGUCCUCAAUCUUCGAUUUCCCAGCAAGGACUUUCUCAGCGAGCAGAUCUUGCUUGUUGAGGAACAGGAUCACAGAGAUGGUGCGCAGCCAUCUGUUGUUCCAGAUGCUCUUGAAGAGCAACAGAGGAUUGAGCAUCA
# B4: chr13:58910217:58910218:+_ENSMUSG00000055254_ENSMUST00000079828|mus_hu|FALSE|FALSE (ssRNA)
# RNA: GGGAGUUCUACAGUCCGACGAUCACUGUUAGGCUCCAAUCUCGGAAAUGCCACGAUGCCAGGAGAAGGGUCGCUGCACCAGAUCCGAGAGGCACUGCAUUUGCAGGACGUGGGACAGGCGAAAGCGGCCCUCCAGAAGCCCACCAACAGAGGAUUGAGCAUCA
# B5: chr6:83912004:83912005:+_ENSMUSG00000030016_ENSMUST00000032088|mus_hu|FALSE|FALSE (ssRNA)
# RNA: GGGAGUUCUACAGUCCGACGAUCUAAGUCAUAAACUUCUUCUACAGAAUAUCCUUUAUUAGGCAAAUUAGAGACAAGCAUCACACACAUUUCUUCUGUUUCCUUGUUAAGUGGUUCAUUCUCUGUGGCCUCCAAAGCAGCAUCCAACAGAGGAUUGAGCAUCA
# B6: chr8:110352747:110352748:+_ENSG00000120533_ENST00000521662|hu_mus|motif|central (ssRNA)
# RNA: GGGAGUUCUACAGUCCGACGAUCCAGGGCUCUGCCUUUUGGAGUGAUUUCAGCCACCAAGUCAUCAACAGUAACGUGUUCGGGUCCUUUUUCUUUAAUUACCUCUUUACAGUGUGCCUUUAGCUGAUCCUUCCAGCCGCACUCCAACAGAGGAUUGAGCAUCA
# B7: chr11:53094105:53094106:-_ENSMUSG00000020361_ENSMUST00000020630|mus_hu|FALSE|FALSE (ssRNA)
# RNA: GGGAGUUCUACAGUCCGACGAUCCAAUUUCUUGAGUUUCUCACACUCCUGAGAGAGUCGUAAUAAUGCACGGAUUUUGGACUUAAUGUCUAGCUUGUAUUUCUUCCCAAAUUCUUCACAGAAGUGAUUUACUAACACUUCAUCCAACAGAGGAUUGAGCAUCA
# B8: chr10:98281081:98281082:-_ENSG00000077147_ENST00000371142|hu_hu|motif|central (ssRNA)
# RNA: GGGAGUUCUACAGUCCGACGAUCAAGAAAAAAGUACUCUGUAGUCGAUCUGUACAUCCAAAUGCAUUUGGGAAUCGGCACCGGCGUUACAUUAUUUAAUGUUAUAUACAUUUAUUACCCACCCCCCUUGUUUUUAAUAAUUUCCAACAGAGGAUUGAGCAUCA
# B9: chr10:1042047:1042048:+_ENSG00000107937_ENST00000545048|hu_hu|motif|central (ssRNA)
# RNA: GGGAGUUCUACAGUCCGACGAUCGUAGAGAGAGUCGCCAUACUUCAUCAGUCGCACAUAAUCUUUAGCAACAUUGUCCACGGAAUUUUUGGCAAUAUUUAUUUGCCCCAGAGCCAACUUGUAAUGAUCCUUGUCGUAGAGAAUCAACAGAGGAUUGAGCAUCA
# B10: chr16:29649037:29649038:+_ENSMUSG00000038084_ENSMUST00000160597|mus_mus|FALSE|FALSE (ssRNA)
# RNA: GGGAGUUCUACAGUCCGACGAUCCACAGUCUACUUCUCCUGGUGAAGAGCUUCAAUGAAAGCAUCAAGCUUUUCUUGAAUUUCUCUAACUUUCUUGAGAUCUUCUGCCAGCUGAACUCGUUUGCCAGUGAGCAAUUUAACCUUCAACAGAGGAUUGAGCAUCA
# B11: chr18:34474267:34474268:+_ENSMUSG00000005871_ENSMUST00000115781|mus_hu|FALSE|FALSE (ssRNA)
# RNA: GGGAGUUCUACAGUCCGACGAUCCUCUGAUUCUGUUUCAUUCCCAUUGUCAUUUUCCUGAACUGGAGGCAUUAUUCUUAAUUCCACAUCUUUCUGUAUAAAUGGCUCAUCGAGGCUCAGAGCACUCAGGCUGGAUGAACAAGACAACAGAGGAUUGAGCAUCA
# B12: chr1:60041781:60041782:+_ENSMUSG00000041040_ENSMUST00000036540|mus_hu|mus_mus_mus_hu_False|48_98 (ssRNA)
# RNA: GGGAGUUCUACAGUCCGACGAUCAAGUUUACAAUAGCUCAACUUUAGCAGUAGUGGCAAAUUUUCUUUUAUUUUCCUUCACAAAAGAAAACCUCAGUAACCCAGUCCUAGUCUUGGACAUAGUGAAAGCUAUAAAUUCUGACUCAACAGAGGAUUGAGCAUCA
# B13: 70064772_70066678_665_CDS_ENSG00000087338_ENST00000282570|human|control|control (ssRNA)
# RNA: GGGAGUUCUACAGUCCGACGAUCAUCAAUGUUCUGGUCAGGAAUCUCCAGUUCAAUAAUAUUCAUGCUGGAUUCUUUCCAAGAACCACUGAACAUACUAGAAAAGUAGCCAGAUUGACAUAAAUAUAUUUUGUGUAAGCUCCACAACAGAGGAUUGAGCAUCA
# B14: chrX:130621085:130621086:+_ENSMUSG00000031256_ENSMUST00000033609|mus_mus|FALSE|FALSE (ssRNA)
# RNA: GGGAGUUCUACAGUCCGACGAUCGUAAUAUCUUAAGUAUAUUAACUGUAAUCAAAUUUGUACUAUAGUUAGAAGCCAACUAUAUUGUCACUUUGUAUUGUUUGGAAUAACUGGAAAGGCCUGACGUACAUCAUGAGAUAAUUGCAACAGAGGAUUGAGCAUCA
# B15: chr5:143539998:143539999:-_ENSG00000145817_ENST00000274496|hu_mus|motif|central (ssRNA)
# RNA: GGGAGUUCUACAGUCCGACGAUCAGUUCAGAAGACAGAAAUCAGGGCAAAGACUCCAUACAACAAAGCACAGGGAUAUGCCACGGAAAGUUGUUGUCCAUCCAUAGCUAAUGCAGAAAUAAAAAUUUUGGAAGCAGAAAAACUCAACAGAGGAUUGAGCAUCA
# B16: chr1:39494447:39494448:+_ENSG00000168653_ENST00000372967|hu_mus|hu_hu_hu_mus_False|28_108 (ssRNA)
# RNA: GGGAGUUCUACAGUCCGACGAUCGCAUCGACCAGCCUUCUUAUAGGGCUGUUCUGCGCUUAGGAACAUAAAGUGCCGGUCCAGGCUGAUGCCCAGCUUUUUCUGUAUGUCCAAGAAAGGCAUGGCUCUGCAGUGCCCUUGUCACAACAGAGGAUUGAGCAUCA
# B17: 90030650_90030925_1232_3pUTR_ENSG00000140995_ENST00000570182|human|control|control (ssRNA)
# RNA: GGGAGUUCUACAGUCCGACGAUCGCACGUCGCCCUCUCUGCAGAGCUCACACACGAAGCCCUUGGCCUGGCACCGCUCGCAGUCCAGCUUGAUGUGCUUGGCGAAGAGCGUGUGGAUCUCGGUGAGCGAGCAGCCCAGGCGGCCAACAGAGGAUUGAGCAUCA
# B18: 154703432_154703552_822_CDS_ENSMUSG00000074656_ENSMUST00000099173|mouse|control|control (ssRNA)
# RNA: GGGAGUUCUACAGUCCGACGAUCAAAAGAAGUUUUCUUGGUUCCUACUCGGACGACCUGUGGAGGUUUCAUAACAAAUUUCCUCUUCUCUCCAGCAACCAUAUCUGGAUUCUUUUCUCUCAUGAUGUUGAACACUCGGUUCAGCAACAGAGGAUUGAGCAUCA
# B19: chr14:90871293:90871294:+_ENSG00000198668_ENST00000553542|hu_mus|FALSE|FALSE (ssRNA)
# RNA: GGGAGUUCUACAGUCCGACGAUCCAUUAGCAAAUGGAACUUUAAGGAGUCCACUAAGUGCUUCCUUAUAAGGUAGUACGAGUAUUUAUACUGUAAAACUGAUGUAGGGGCUUGACUUUAGGGGCAGGACCACCGACCAAUACACAACAGAGGAUUGAGCAUCA
# B20: chr6:22256794:22256795:-_ENSMUSG00000029672_ENSMUST00000165576|mus_mus|motif|central (ssRNA)
# RNA: GGGAGUUCUACAGUCCGACGAUCCCUGUUCUCAAGCAACUUUACUUCAUACACAUUCAAAUAUAUCCAGGCCAUAUGAUACGGCGGUGUUGAAUGGCAAAAACUUAAUUUUUAUAUGUUAAGAUGUAUCCAAAAAAAAAAAAACAACAGAGGAUUGAGCAUCA
# B21: chr7:31009287:31009288:-_ENSMUSG00000006095_ENSMUST00000006254|mus_hu|FALSE|FALSE (ssRNA)
# RNA: GGGAGUUCUACAGUCCGACGAUCAGCAGGGGAAUUCCUUAGGUGUCAUAUCUCGUCCAACCCGUAGUCCUCCUCCGGGAAGUCCCCCACCGUCACGACUGCUGGCUUGACAAAGGCGCCAUACUUGGCCUGGCAUUCGAAGUACAACAGAGGAUUGAGCAUCA
# B22: chr18:43668140:43668141:-_ENSG00000152234_ENST00000398752|hu_hu|FALSE|FALSE (ssRNA)
# RNA: GGGAGUUCUACAGUCCGACGAUCAAGUCUCUUCACCAACUGGGCAACAGUGGAUCUCUUUUGACCAAUAGCAACAUAAAUACAGUACAGCUUCUUCUUUUCAUCAGAUCCAUCAUUGAAACGUUUCUGGUUAAUGAUUGUGUCCAACAGAGGAUUGAGCAUCA
# Target: T1, UNK ZnF1-3
# Assay: nsRBNS (natural sequence RNA bind-n-seq); RBNS binding buffer (assumed for nsRBNS): 25 mM Tris pH 7.5, 150 mM KCl, 3 mM MgCl2, 0.01% Triton X-100, 500 ug/ml BSA, 20 U/ml SUPERase-In, 4 C; UNK is unkempt and MSI1 is Musashi-1; names of the RNAs are library labels; protein concentration not given here; high values mean tight binding
row,Binder,binding signal
1,B1,0.991 enrichment R
2,B2,1.25 enrichment R
3,B3,0.382 enrichment R
4,B4,0.732 enrichment R
5,B5,1.7 enrichment R
6,B6,0.781 enrichment R
7,B7,0.496 enrichment R
8,B8,1.85 enrichment R
9,B9,1.17 enrichment R
10,B10,0.703 enrichment R
11,B11,0.842 enrichment R
12,B12,0.602 enrichment R
13,B13,1.31 enrichment R
14,B14,1.06 enrichment R
15,B15,1.86 enrichment R
16,B16,0.761 enrichment R
17,B17,0.505 enrichment R
18,B18,0.629 enrichment R
19,B19,0.881 enrichment R
20,B20,2.7 enrichment R
21,B21,1.13 enrichment R
22,B22,1.43 enrichment R
